In paper PMC4336329 (PLoS ONE, 2015):
Hit rate of the full screen: of about 310,000 compounds, about 14,000 (4.5%) showed an effect of 50% or more. Effects have a minus sign here. Some of the results follow. Where a SMILES comes first, the peptide text is derived from it. [ ]: non-standard residue; d: D form. The star is where a group is joined. ξ: configuration not given here. Tos = Cc1ccc(S(=O)(=O)*)cc1; ξP = O=C(O)C1CCCN1

Target: human ether-à-go-go-related gene (hERG) potassium channel (human, UniProt Q12809)
Test: primary screen, population patch clamp on CHO cells stably expressing hERG
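Further: peak tail current of the secondary pulse compared with the same well before compound.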

human ether-à-go-go-related gene (hERG) potassium channel, sequence (Q12809 whole entry, looked up): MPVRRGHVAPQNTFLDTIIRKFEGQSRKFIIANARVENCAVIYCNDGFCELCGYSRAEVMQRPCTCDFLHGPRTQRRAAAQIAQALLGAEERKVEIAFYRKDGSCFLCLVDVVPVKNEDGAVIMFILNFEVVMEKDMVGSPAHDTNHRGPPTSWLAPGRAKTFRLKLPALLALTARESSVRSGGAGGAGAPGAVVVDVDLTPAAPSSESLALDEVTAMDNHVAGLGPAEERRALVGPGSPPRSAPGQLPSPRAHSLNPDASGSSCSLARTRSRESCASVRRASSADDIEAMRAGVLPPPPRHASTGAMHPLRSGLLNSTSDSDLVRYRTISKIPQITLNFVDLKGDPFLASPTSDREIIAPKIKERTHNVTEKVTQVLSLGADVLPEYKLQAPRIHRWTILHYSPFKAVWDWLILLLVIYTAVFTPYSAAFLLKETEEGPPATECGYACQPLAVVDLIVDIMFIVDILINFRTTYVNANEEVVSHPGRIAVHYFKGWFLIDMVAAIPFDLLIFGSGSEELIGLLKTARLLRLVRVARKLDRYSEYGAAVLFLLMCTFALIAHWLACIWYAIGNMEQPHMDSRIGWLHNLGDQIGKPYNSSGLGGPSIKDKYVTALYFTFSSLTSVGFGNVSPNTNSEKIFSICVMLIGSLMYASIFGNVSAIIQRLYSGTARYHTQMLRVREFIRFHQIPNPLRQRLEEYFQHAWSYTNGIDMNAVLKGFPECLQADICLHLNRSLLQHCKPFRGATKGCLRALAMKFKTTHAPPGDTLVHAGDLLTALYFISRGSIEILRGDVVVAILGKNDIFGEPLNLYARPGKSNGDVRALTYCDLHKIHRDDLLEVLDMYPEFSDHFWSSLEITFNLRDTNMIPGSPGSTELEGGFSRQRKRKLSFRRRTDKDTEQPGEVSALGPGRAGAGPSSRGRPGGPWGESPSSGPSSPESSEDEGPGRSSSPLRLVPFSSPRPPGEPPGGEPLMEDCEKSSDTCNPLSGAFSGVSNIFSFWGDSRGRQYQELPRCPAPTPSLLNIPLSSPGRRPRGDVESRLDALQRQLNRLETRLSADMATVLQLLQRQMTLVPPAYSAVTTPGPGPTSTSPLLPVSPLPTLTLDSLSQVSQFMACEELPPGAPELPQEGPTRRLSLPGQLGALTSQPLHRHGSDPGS

Row | SMILES | hERG current change (%, negative = inhibition) at 10uM [%]
1 | CC(C)c1nnc(NC(=O)C2CCCCC2)s1 | -2.05
2 | CCN(CC)C(=O)C(C)OC(=O)c1ccc(O)cc1 (stereo not drawn) | 2.18
3 | CCOC(CNC(=O)c1cccc([N+](=O)[O-])c1)OCC | 15
4 | Nc1ncc(Br)cc1S(=O)(=O)NCCC(=O)Nc1cccc(Cl)c1 | -6.98
5 | COCCN1CCN(C(=O)c2ccc3c(c2)S(=O)(=O)c2ccccc2C3=O)CC1 | -1.17
6 | Nc1cc(-c2cccc([N+](=O)[O-])c2)[nH]n1 | -19.8
7 | CCOc1ccc(OCc2cccc(C(=O)O)c2)cc1 | 8.48
8 | CC(C)CCNC(=O)c1ccc(-n2cnc3cccnc32)cc1 | -10.8
9 | O=C(CCN1C(=O)c2ccccc2C1=O)C1=NN[C@@H]2C(=O)N(c3ccc(F)cc3)C(=O)[C@H]12 | -5.4
10 | N/C(=N\OC(=O)Cc1ccccc1)c1ccc(Br)cc1 | 5.5
11 | Cc1ccc(OCC(=O)Nc2ccc(-c3nc4ncccc4o3)cc2)c(C)c1 | 17.8
12 | O=C(COc1ccc2c3c(c(=O)oc2c1)CCCC3)N1CCN(c2ccc(F)cc2)CC1 | -7.75
13 | Cc1ccc(NC(=O)CSCC(=O)NCCc2ccccc2)c(C)c1 | 0.722
14 | O=C(COC(=O)c1ccc(Br)cc1)NCCN1C(=O)CSC1=O | 7.1
15 | CCc1ccc(-c2cn3nc(C)c(C)nc3n2)cc1 | -50.8
16 | O=C(Cn1nnc2ccccc21)OCC(=O)c1ccc(F)cc1 | 1.04
17 | Cc1ccc(N2C(=O)NC(=O)/C(=C\c3ccc([N+](=O)[O-])o3)C2=O)cc1 | 17.7
18 | CCOc1ccc2c(C)c(C)c(=O)oc2c1OCC | -5.12
19 | CCc1c(C)nc(SCC(=O)Nc2ccc3c(c2)OCCO3)[nH]c1=O | 8.64
20 | O=C(Nc1ccc(Cl)c(Cl)c1)Nc1nccs1 | 13.6
21 | COc1ccnc(NCc2ccc(Cl)cc2)c1C#N | 17.7
22 | COc1ccc(OC)c2c1sc(=NC(=O)c1cccc(N3C(=O)CCC3=O)c1)n2C | 11.7

Row | SMILES | hERG current change (%, negative = inhibition) at 10uM [%]
23 | Cc1cccc(-n2ncc3c(NC(C)C)ncnc32)c1 | 0.989
24 | COc1ccccc1NC(=O)Nc1nnc(C(C)C)s1 | 2.46
25 | Cc1cccc(N2CCN(C(=O)CCNC(=O)Cn3ccc4ccccc4c3=O)CC2)c1C | -55.5
26 | CC(=O)N(CCc1cccc(C)c1)Cc1cc2ccc(C)cc2[nH]c1=O | -19.7
27 | CCOCC(=O)Nc1ccc(F)c(F)c1 | -3.55
28 | CCN(CC)C(=O)C1CCCN(C(=S)Nc2cccc3ccccc23)C1 (stereo not drawn) | 13.7
29 | CCC(C)c1ccc(OCC(=O)Nc2ccc3[nH]c(=O)[nH]c3c2)cc1 (stereo not drawn) | 1.34
30 | Cc1ccc(F)cc1NC(=O)c1ccc2c(c1)OCO2 | 1.94
31 | O=C(O)COc1ccccc1-c1nc(-c2ccccc2)c(-c2ccccc2)[nH]1 | 5.22
32 | COc1ccccc1NC(=O)C(CC(C)C)NC(=O)C1CCCCC1 (stereo not drawn) | -4.36
33 | Cc1cc(-c2ccc(C)c(S(=O)(=O)N3CCN(c4ccccn4)CC3)c2)on1 | -21.2
34 | CC1CCN(CC(O)COCCOc2ccc(Br)cc2)CC1.Cl (stereo not drawn) | -64.3
35 | COc1ccccc1N(Cc1cc(=O)[nH]c2ccccc12)C(=O)c1ccccc1 | -11
36 | COc1ccc(C(=O)NN2C(=O)C3C4C=CC(O4)C3C2=O)cc1 (stereo not drawn) | 11
37 | Cc1ccc(C(=O)Nc2cccc(C(F)(F)F)c2)cc1NC(=O)c1nccnc1N | 8.61
38 | Cc1ccc(S(=O)(=O)N2[C@@H](c3cccc(Cl)c3)C(C(=O)O)=CC[C@H]2c2cccc(C)c2)cc1 | -13.2
39 | CCOC(=O)C1C(=O)NC(N2CCN(CC)CC2)=NC1c1ccccc1 (stereo not drawn) | 16.8
40 | Cc1cc(C)n(CC(=O)Nc2cccc(C(F)(F)F)c2)n1 | 29.5
41 | COC(=O)c1ccc(N2CCOCC2)c(NC(=O)c2cccnc2)c1 | -4.85
42 | COc1cc(OC)c(C2N(c3ccc(Cl)cc3)C(=O)C3CCCN32)cc1OC (stereo not drawn) | -0.307
43 | CC(C)(C)N1C(=O)c2ccc(C(=O)Nc3cc(C(=O)O)cc(C(=O)O)c3)cc2C1=O | 22.1
44 | COCCNC(=O)C(c1ccc(C)cc1)N(C(=O)CCC(=O)Nc1ccccn1)C1CCCCC1 (stereo not drawn) | 4.43

Row | SMILES | hERG current change (%, negative = inhibition) at 10uM [%]
45 | CCc1csc(CNC(=O)C2CCC(=O)N(Cc3cccc(F)c3)C2)n1 (stereo not drawn) | 4.88
46 | CCn1nc(CC(=O)O)c2ccccc2c1=O | 22.9
47 | CC(C)C1=C2OC(N)=C(C#N)C(C#N)=C2C(C)CC1 (stereo not drawn) | 9.98
48 | COc1ccc(/C=C(/NC(=O)c2ccccc2)C(=O)NCc2ccco2)cc1 | 27
49 | O=C1N=c2ccccc2=C1c1sc(Nc2cccc(O)c2)nc1O | 15.1
50 | CN1CCN(C(=O)C2=C[C@H](c3ccccc3)C[C@H](OCc3ccc(CO)cc3)O2)CC1 | -26.5
51 | C[n+]1cccc(/C=N/Nc2nc(Cl)c(C#N)c(Cl)c2Cl)c1.[Cl-] | 6.86
52 | Cc1cc(Nc2cccc(Cl)n2)n(-c2ccccc2)n1 | -8.85
53 | C(=N\n1cnnc1)/c1ccc(OC2CSC2)cc1 | -9.61
54 | O=C(Cc1ccccc1)NC(NC(=O)Cc1ccccc1)c1cccc([N+](=O)[O-])c1 | 4.27
55 | O=C(c1cc(-c2ccc(F)cc2)no1)N1CCN(Cc2ccc3c(c2)OCO3)CC1 | -19.5
56 | Cc1cc(C)c2c(N)c(C(=O)Nc3ccccc3Br)sc2n1 | 13.4
57 | CCOC(=O)c1ccc(NC(=O)CCNc2c(N3CCCC3)c(=O)c2=O)cc1 | 15.1
58 | CCc1cc(C(=O)N2CCN(S(=O)(=O)c3cc(C)ccc3C)CC2)sc1C | 11.8
59 | COc1ccc(C(=O)Nc2ccc3oc(-c4cccnc4)nc3c2)cc1OC | 12.7
60 | CCN(CC)C(=O)N1CCN(S(=O)(=O)c2c(C)cc(C)cc2C)CC1 | -5.06
61 | Clc1ccc(-n2nnc(-c3cccnc3Cl)n2)cn1 | -9.43
62 | COc1cc(/C=N/NC(=O)COc2ccc([N+](=O)[O-])cc2)ccc1OCC(=O)N1CCOCC1 | 1.07
63 | Cc1ccc(S(=O)(=O)NCC(=O)N2CCCC2C(=O)O)cc1 (stereo not drawn) (Tos-Gly-[ξP]-OH) | -1.84
64 | Cc1ccc(C)c(C2NC(=O)c3ccccc3N2)c1 (stereo not drawn) | 12.7
65 | Cc1ccc(CNc2nc(C)c(C(=O)N(C)C)s2)cc1 | 4.98
66 | Cc1ccc(OCC(=O)N/N=C/c2cn(Cc3ccccc3)c3ccccc23)cc1 | 15

Row | SMILES | hERG current change (%, negative = inhibition) at 10uM [%]
67 | CSCCC1NC2(C(=O)Nc3c(Cl)cccc32)[C@@H]2C(=O)N(C3CCCC3)C(=O)[C@H]12 (stereo partly drawn) | -5.23
68 | CCOC(=O)C1=C(C)NC2=C(C(=O)CCC2)C1c1ccc(O)c(OCC)c1 (stereo not drawn) | 4.11
69 | COc1ccc(NC(=O)CN(C)C(=O)c2ccc(-c3cccc(C(F)(F)F)c3)o2)cc1 | 10.1
70 | CSc1nc(C)[nH]c(=O)c1C#N | 19.1
71 | COc1cc(NS(=O)(=O)c2ccc(NC(=O)CN3C(=O)c4ccccc4C3=O)cc2)nc(OC)n1 | 24.1
72 | CSc1nnc(-c2ccccc2)c(-c2ccccc2)n1 | -13.7
73 | O=C(CNS(=O)(=O)c1ccccc1)N1CCN(C(=O)c2ccco2)CC1 | -6.48
74 | CN1CCN(Cc2cc(C(C)(C)C)c(O)c(C(C)(C)C)c2)CC1 | -15.1
75 | C=CCN(C(=O)c1cc(C)cc(C)c1)C1(C(=O)Nc2ccccc2)CCN(C(C)C)CC1 | -14.4
76 | COc1cc(S(=O)(=O)N2CCCCC2)ccc1NC(=O)/C=C/c1ccccc1 | -16.8
77 | COc1ccc(CNC(=O)C2CC(c3cc(C(F)(F)F)cc(C(F)(F)F)c3)=NO2)cc1 (stereo not drawn) | 10.7
78 | CC(=O)c1ccc(S(=O)(=O)N2CCN(c3ccccc3F)CC2)cc1 | 6.87
79 | COc1ccc(CN2C(=O)c3cccnc3C2O)cc1 (stereo not drawn) | 15.3
80 | CCOC(=O)C(C(=O)NCc1cccc(OC)c1)c1ncc(C(F)(F)F)cc1Cl (stereo not drawn) | 16.9
81 | C=CC1=C(C(=O)O)N2C(=O)[C@@H](NC(=O)/C(=N\O)c3csc(N)n3)[C@H]2SC1 | 3.26
82 | O=C1CC(=O)Nc2cc(S(=O)(=O)N3CCOc4ccc(Cl)cc43)ccc2N1 | 0.263
83 | Cc1cc(C)n(/N=C/c2cccs2)c(=O)c1C#N | 15.8
84 | COc1ccccc1/C=C/C(=O)c1ccccc1 | 7.68
85 | Cc1ccc(C)c(C(=O)CCC(=O)N2CCN(c3cccc(C(F)(F)F)c3)CC2)c1 | 1.54
86 | Cc1ccc(CSc2nc3ccccc3cc2C=O)cc1 | 7.93
87 | O=C(Nc1cc(S(=O)(=O)N2CCOCC2)ccc1N1CCCCC1)c1ccc(Cl)cc1 | -1.07
